Data on 167 variants can be found in the RNAGym collection of RNA variant scans (doi:10.1093/nar/gkz1192).

B1: CPEB3 Ribozyme (parent)
chain: UAACAGGGGGCCACAGCAGAAGCGUUCACGUCGCAGCCCCUGUCAGAUUCUGGUGAAUCUGCGAAUUCUGCUGUAUAUCUC

The source gives no read counts; variants with many changes may rest on few reads.

The data set covers variants of B1. The experiment in a line: self-cleavage, relative activity (ratio to wild type); higher = more cleavage; in vitro, sequencing. In a few lines: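 For each CPEB3 ribozyme variant, relative activity is its cleaved/total read fraction divided by the unmutated ribozyme's. Barcoded error-prone PCR libraries were transcribed by T7 RNA polymerase (5 hours, 37°C) and held in DNase I for 15 min before an EDTA stop, with cleavage occurring throughout. Template-switching reverse transcription and Illumina sequencing were used to read the RNAs. A 5-read minimum applied, and results are the mean of three batches.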
Take G33C U43C A47U: the self-cleavage turned out to be 0.15. With A35G U66C G70A, the self-cleavage turned out to be 0.44. As for A35G U41C U58C A64G, the self-cleavage was found to be 0.79. The result for C34A A35G U66C U72A reads 0.14; that for A35C U41C G61A U72C, 0.71; that for A35G A45G A64U C71A U72G, 0.56. For A35G U41G U49C, the self-cleavage was 0.14.

In the case of A35G A64G A77G U78C, the self-cleavage was determined as 1.31. The result for A35G U41C U43C U60C reads 0.17.

A35G C62G A64G U80C: the self-cleavage turned out to be 0.58. As for C34G U67C U72C, the figure is 0.17; as for C34G C40A A64G U69A U76A U78C, 0.03; as for A35G A56G U80G, 1.29. As for A35G U41C U60C, the figure is 1.07. Take A35G U43C U76C: the self-cleavage came out at 1.17.

With A35G U51A A64G, the self-cleavage is 1.21. Turning to A35G U49A U51C U67C, the self-cleavage was determined as 0.98. Consider A35G A64G A65C U76C, for which the self-cleavage is 0.24. As for A35G A45G U48A G73C U76C U80C, the figure is 1.28; as for A35U A45G U48C U58A, 0.08; as for G33U U51C U72C, 0.15. For the variant A35G G53A A64G U74C A75G, the self-cleavage was 1.32.

A35G U49A A57U U60A U72C: the self-cleavage is 0.6. As for C34G U69A U80C, the self-cleavage was determined as 0.28. As for C34U U48C U66C A77U, the self-cleavage worked out at 0.16. In the case of A35G A64G U74A, the self-cleavage is 1.29. As for A35G A45G A47U U51C U54A U74A, the figure is 1.13; as for A35G U41C A45G A47G U54C G61A, 1.07; as for A35G U41C A56G A77G, 1.27.

With A35G U41C A56G U72C, the self-cleavage is 1.42. On to C34U G36A U60A U78C, for which the self-cleavage is 0.15.

As to A35G C37G U41A U76A U78C, the self-cleavage is 0.29. Take A35G U51A A65G U78C U80C: the self-cleavage is 1.15.

Take A35G U48C G63A: the self-cleavage was determined as 1.21.

With A35C U51C U58A A64U U69C U72A, the self-cleavage was 0.2.

For A35G C40A G42A U72A, the self-cleavage is 0.

In the case of A35G A64G U66C, the self-cleavage came out at 1.01.

Turning to A35C U66C U72C U80C, the self-cleavage was determined as 0.35. Consider A35G G42A U60A U72C, for which the self-cleavage was 0.18. As for A35G U48A U78A, the figure is 1.24; as for A35G U48A U78C, 0.95; as for G33C U54A U60G, 0.03.

A35G U49C C59A A64G U76C: the self-cleavage worked out at 0.19. For A35G A57G U78C, the self-cleavage is 1.3. Take A35G C38U U51A: the self-cleavage was 1.3.

A35G A47G A64U: the self-cleavage stood at 1.19. For A35G A45G U58C A65G U76A, the self-cleavage was 0.4. Take A35G U74C A77G: the self-cleavage worked out at 1.31. As for A35G A47G A56C U66C, the figure is 0.34.

Turning to C34G G42A A56U, the self-cleavage is 0.25. Consider A35G A57G A64G, for which the self-cleavage was found to be 1.27.

For the variant A35G U48C U60A A64G, the self-cleavage worked out at 0.39.

A35G C39U A56G U74C: the self-cleavage is 1.3. As to A35G U51A U72G, the self-cleavage is 1.25. As to A35G U51C C62A A64U, the self-cleavage worked out at 0.46. For A35G U51A A56G U66C, the self-cleavage stood at 1.09. C34U A45U G61C U67C U76A: the self-cleavage was 0.08. A35G U41C U48C A57G U66C U78C U80A: the self-cleavage amounted to 1.17. As for G33U U51A A56U A64U, the figure is 0.11. On to A35G A47G A56G, for which the self-cleavage turned out to be 1.29.

In the case of A35G G46A U72C, the self-cleavage was determined as 0.55. Regarding A35G U48C A65G, the self-cleavage came out at 0.73.

Consider A35G A45G A56G, for which the self-cleavage worked out at 1.25. For the variant A35G A45G A56U, the self-cleavage came out at 1.07.

For the variant C34A G36A U51C A64U U69C U78C, the self-cleavage is 0.13. On to C34A A57G U76C, for which the self-cleavage stood at 0.54. Turning to C34A U48C C71U U80C, the self-cleavage turned out to be 0.14. Regarding A35G U41C A56G A57G, the self-cleavage turned out to be 1.2. For A35G C37A U49C, the self-cleavage is 0.34. As to C34U U51C U54A U72C, the self-cleavage was 0.29. Take A35G U43C U48C U54A: the self-cleavage worked out at 1.17. In the case of A35G A47G U69C, the self-cleavage amounted to 1.23.

A35G U41G U60A: the self-cleavage was 0.19. In the case of A35G A47G U51A A57G U58C, the self-cleavage worked out at 1.26.

Take A35G A45G U54C: the self-cleavage was determined as 1.33. Turning to A35G U51A A64U U67C, the self-cleavage was 0.3. For the variant A35U A45G A65G, the self-cleavage was found to be 0.4. Turning to A35G U43C U58A, the self-cleavage is 0.29. The result for A35G U43C A45G U48C G53U U69C reads 0.43; that for G33C U60C U78C, 0.12. As for C34U A56G U80C, the self-cleavage was found to be 0.49. With C34U U43C U78C, the self-cleavage came out at 0.1.

With A35G U69A A75G, the self-cleavage was found to be 1.29. C34A U69C U74A A75G: the self-cleavage came to 0.07.

Regarding A35G U58G U60C U67C U72C, the self-cleavage is 0.31. As for A35G U43A U51A U54C A56G U72C, the self-cleavage was found to be 1.19. With A35G A45U A65G, the self-cleavage stood at 0.67. As for A35G G53A A57G, the figure is 1.2. Take A35G A57G C81A: the self-cleavage worked out at 1.46. As for C34G A56U U72C, the self-cleavage is 0.13. Turning to G33U U43C U48C U49C U51G G61A U69A, the self-cleavage came to 0.06. Take A35G C38G U69C U72C: the self-cleavage stood at 0.1.

In the case of G33U U60C U66C, the self-cleavage worked out at 0.12. As for C34U C40A U49C A57G U74C, the figure is 0.08. The result for A35G U41A U72C reads 0.38. With A35G U43C A45U A56G U58A U76C, the self-cleavage was 0.1. In the case of A35G U43A U48C, the self-cleavage is 1.13. Turning to A35G U41G U51A, the self-cleavage stood at 0.24. For the variant A35G C40U U48C U54C U72G U80C, the self-cleavage was found to be 1.18. As for A35G C62A G63A, the self-cleavage stood at 0.16. On to A35U A45G A64U, for which the self-cleavage amounted to 0.3. The result for C34A A57U U66C U76C reads 0.09; that for C34A A35G C40U, 0.28; that for G33U A45U G53A A56G U74C, 0.17. With A35C A45U U60C U66C, the self-cleavage is 0.1. A35G U48C A64G U74C: the self-cleavage amounted to 1.08.

Consider A35G C39A U74A A75G, for which the self-cleavage amounted to 0.72. Consider C34U A35G U72C U78C, for which the self-cleavage was 0.39. As to A35G C39A A47G G73A, the self-cleavage was found to be 1.02. With A35G U43G U54G, the self-cleavage worked out at 0.11. Turning to A35G U41A U60C, the self-cleavage is 0.15.

For the variant A35G A45C A57G, the self-cleavage came to 0.94. As for A35G U48C U60A U67C, the self-cleavage stood at 0.35. On to C34U U51A A56G, for which the self-cleavage was 0.16. Take A35C U54C A65C: the self-cleavage was found to be 0.18. Consider G33U A47G U51A, for which the self-cleavage amounted to 0.15. As for A35G U54C A56U A64G, the figure is 1. A35G C44A A56U: the self-cleavage came out at 0.67. With A35G C40U A57U A64G A77G, the self-cleavage came to 1.12.

Take G33C U43C U69A: the self-cleavage amounted to 0.13.

Regarding A35G U43G U54A U58A, the self-cleavage was found to be 0.15. As for A35G G61C A64G A77U, the figure is 0.7; as for A35G U48C A57G U67C, 0.15.

C34A G53A U67A U74C: the self-cleavage is 0.15. For A35G A45G U51C U76A, the self-cleavage amounted to 1.22. As for A35G A47C A57G U60A U67C, the self-cleavage was 0.14.

Take C34A U43C A45G U49G U80A: the self-cleavage is 0.14. For A35G U48C U51A U76C, the self-cleavage was determined as 1.27. A35G U41C U43G A64U U80A: the self-cleavage stood at 0.16.

For A35G U49C A65G, the self-cleavage was found to be 0.6.

For the variant A35G U41C G61A U67C, the self-cleavage is 0.38. In the case of A35G U49C U67C U74C, the self-cleavage stood at 0.33. As for A35G U43C G53U A57G, the figure is 1.28; as for A35G C40U U51C A75G, 1.25.

Consider A35G U48C U58C, for which the self-cleavage is 0.57.

As to G33C U49C G53U A75G, the self-cleavage turned out to be 0.08.

On to A35G U51C A57U C62U U78A, for which the self-cleavage came to 0.34.

As to C34G U49G U78A, the self-cleavage is 0.22. Take A35G C44A U72C: the self-cleavage turned out to be 1.15. As for A35C U51C U72C, the self-cleavage was found to be 1.09. Turning to A35G U48A G73C U76C U80C, the self-cleavage stood at 1.29. Consider A35C C44A U58C U67C, for which the self-cleavage is 0.08.

On to A35G C40U U43A U49C A56G C62A U78C, for which the self-cleavage is 0.12. A35G U54A A65G U78C: the self-cleavage turned out to be 1.23. Turning to A35G A47G U49C U54A, the self-cleavage was found to be 0.68. As for G33U U41C U60A, the figure is 0.12; as for A35G U41C U43C A64G, 0.91.

As for A35C U72C U78C, the self-cleavage was found to be 1.17.

On to C34U U51C U80C, for which the self-cleavage is 0.46. For A35G U43C U69C, the self-cleavage turned out to be 0.84. As for A35G G46U G63A U76A, the self-cleavage is 0.88. Consider A35G A56U A57U, for which the self-cleavage turned out to be 1.16. Consider A35C A57G U76C A77G, for which the self-cleavage was determined as 0.96.

Regarding A35C U69G U76C, the self-cleavage came to 0.51. Consider A35U A45G A56G, for which the self-cleavage is 0.4. The result for A35G G52C U74A reads 1.29; that for C34U A45G A64G A75U U80C, 0.11; that for A35G U54A A57G A77G, 1.28.

Turning to C34U U54C U66C, the self-cleavage is 0.15. Consider C34U C39A A57C, for which the self-cleavage amounted to 0.11.

Turning to A35G A45U A65G U69A, the self-cleavage was determined as 0.37. A35U A45G U60A U69A: the self-cleavage worked out at 0.13. Turning to A35G U41C U54A A64U, the self-cleavage came out at 0.87. Turning to A35G U41C U48C U74A, the self-cleavage is 1.26. On to A35G U43G U58C A65G U80C, for which the self-cleavage was 0.24. The result for A35G U43C A56G G61A G73A U78A reads 0.57. Turning to C34G G52A U60C, the self-cleavage came to 0.23.
